About 2,200 (0.71%) of roughly 310,000 compounds showed an effect of 50% or more. The effect is printed as a negative number. This is one part of the list.
target: human ether-à-go-go-related gene (hERG) potassium channel (human, UniProt Q12809); assay: primary screen, population patch clamp on CHO cells stably expressing hERG
Sequence (Q12809 whole entry, looked up): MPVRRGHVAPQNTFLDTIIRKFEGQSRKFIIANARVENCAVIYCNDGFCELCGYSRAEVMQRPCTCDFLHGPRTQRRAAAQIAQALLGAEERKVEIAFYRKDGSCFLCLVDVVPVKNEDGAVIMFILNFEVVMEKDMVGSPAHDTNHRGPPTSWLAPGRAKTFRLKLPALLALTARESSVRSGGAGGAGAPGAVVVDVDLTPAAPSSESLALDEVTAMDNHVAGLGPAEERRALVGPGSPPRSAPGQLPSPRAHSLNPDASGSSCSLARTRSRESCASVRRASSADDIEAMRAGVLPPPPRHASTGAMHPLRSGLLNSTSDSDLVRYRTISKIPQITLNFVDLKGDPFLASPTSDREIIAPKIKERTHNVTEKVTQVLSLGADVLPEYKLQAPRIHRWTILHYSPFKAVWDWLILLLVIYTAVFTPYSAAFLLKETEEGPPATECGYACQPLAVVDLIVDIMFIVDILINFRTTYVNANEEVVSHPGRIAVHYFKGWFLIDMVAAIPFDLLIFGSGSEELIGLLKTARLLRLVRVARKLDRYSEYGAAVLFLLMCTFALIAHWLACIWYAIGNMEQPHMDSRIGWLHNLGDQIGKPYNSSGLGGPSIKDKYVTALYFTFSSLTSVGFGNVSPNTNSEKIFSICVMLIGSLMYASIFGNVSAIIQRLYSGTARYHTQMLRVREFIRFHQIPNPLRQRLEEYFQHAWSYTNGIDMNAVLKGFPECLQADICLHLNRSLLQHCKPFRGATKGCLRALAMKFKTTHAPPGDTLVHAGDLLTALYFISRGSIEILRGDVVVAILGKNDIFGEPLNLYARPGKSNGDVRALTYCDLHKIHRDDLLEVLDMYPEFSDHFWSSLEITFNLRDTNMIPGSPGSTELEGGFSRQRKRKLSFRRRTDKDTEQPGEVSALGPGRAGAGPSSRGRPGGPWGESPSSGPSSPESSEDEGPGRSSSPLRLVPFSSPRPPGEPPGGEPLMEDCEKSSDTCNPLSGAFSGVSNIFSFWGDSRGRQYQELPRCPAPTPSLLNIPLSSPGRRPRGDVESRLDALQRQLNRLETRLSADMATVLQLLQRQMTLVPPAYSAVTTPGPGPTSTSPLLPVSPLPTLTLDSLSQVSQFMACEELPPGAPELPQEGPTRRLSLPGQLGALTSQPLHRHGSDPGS

Row | SMILES | hERG current change (%, negative = inhibition) at 1uM
1 | c1ccc(-c2nnc3sc(CN4CCc5ccccc54)cn23)cc1 | 2.4%
2 | O=C(COC(=O)c1ccccc1NC(=O)c1ccco1)Nc1ncc(Cl)cc1Cl | 6.49%
3 | COc1ccc(NC(=O)c2cccnc2Nc2ccccc2)cc1 | 1.75%
4 | CCCn1c(SCC(=O)N(C2CCCCC2)C2CCS(=O)(=O)C2)n[nH]c1=O (centres unmarked) | 2.2%
5 | O=C1c2ccccc2C(=O)N1CCCCN(C(=O)c1cc([N+](=O)[O-])ccc1Cl)c1ccc(Cl)cc1 | 5.14%
6 | O=C(c1cccs1)n1cc(C(=S)N2CCOCC2)c2ccccc21 | 0.607%
7 | CCN(CC)CC1CCCCN1CC(=O)N1c2ccccc2C(=O)Nc2cccnc21 (centres unmarked) | 18.1%
8 | COc1ccc(C(C)=O)cc1CSc1nnc(-c2ccccc2O)n1-c1ccccc1 | -14.1%
9 | CCCCCc1ccc(S(=O)(=O)Nc2cc(C)ccn2)cc1 | 10.8%
10 | O=C(O)/C=C/c1cn(-c2ccccc2)nc1-c1cc2ccccc2o1 | 12.4%
11 | CCOc1ccc(NC(=NCc2ccc3c(c2)OCO3)SC2CC(=O)N(c3ccc(OCC)cc3)C2=O)cc1 (centres unmarked) | 3.91%
12 | O=C(N/N=C/c1ccc2c(c1)OCO2)C(O)c1ccccc1 (centres unmarked) | 10.1%
13 | Nc1ccc(N2CCN(Cc3ccccc3Cl)CC2)c(Cl)c1 | 5.3%
14 | O=C(CC1SC(N2CCCC2)=NC1=O)Nc1ccc(C(=O)NCCc2ccc(F)cc2)cc1 (centres unmarked) | 7.77%
15 | CC(=O)c1c(COC(=O)c2cccc(C)c2)nc2ccccc2[n+]1[O-] | 11.3%
16 | CSc1ccc(NC(=O)N2CC=C(n3c(=O)[nH]c4ccccc43)CC2)cc1 | -2.13%
17 | Cc1cc(OCC(=O)N(Cc2ccccc2)C2CCS(=O)(=O)C2)ccc1Cl (centres unmarked) | 18.8%
18 | COc1ccc(C(=O)C2CCCN(Cc3cnc(N4CCCC4)s3)C2)cc1OC (centres unmarked) | -15.8%
19 | CCOc1nc(SC(C(C)=O)C(=O)Nc2ccccc2)nc(N(C)C)n1 (centres unmarked) | -5.02%
20 | Cc1ccccc1OCC(O)CN1CCN(c2ccc(Cl)cc2)CC1 (centres unmarked) | -58.2%
21 | O=C(CO/N=C/c1ccccc1OC(F)F)NCc1ccco1 | 4.42%
22 | Nc1[nH]n2c(=O)c3c(nc2c1N=Nc1ccc(Cl)cc1)CCCC3 | -2.44%
23 | CC1CCCN(C(=S)Nc2ccc(S(=O)(=O)N3CCCCC3)cc2)C1 (centres unmarked) | 8.61%

Row | SMILES | hERG current change (%, negative = inhibition) at 1uM
24 | CC(C#N)(NC(=O)COC(=O)c1ccccc1NCCO)C1CC1 (centres unmarked) | 11.6%
25 | COCCn1c(SCC(=O)Nc2cc(C(C)(C)C)nn2-c2ccccc2)nnc1-c1ccncc1 | -11.5%
26 | CCOC(=O)N1c2ccccc2Sc2ccccc21 | 10.5%
27 | CCOC(=O)C1CCN(C(=O)CS(=O)Cc2nc(-c3ccc(C)cc3)oc2C)CC1 (centres unmarked) | 18%
28 | O=C(NC1CCS(=O)(=O)C1)c1ccc(-c2ccc(Br)cc2)o1 (centres unmarked) | -2.34%
29 | Cc1cc(NC(=O)CSc2ccc3nnc(-c4cccnc4)n3n2)no1 | 11.1%
30 | N#CCCSCc1ccc2oc(C(=O)O)cc2c1 | 12.7%
31 | CC(C)[C@H](NC(=O)c1ccco1)C(=O)OCC(=O)N(C)c1ccccc1 | 4.31%
32 | CCOC(=O)C(C)Oc1ccc(C2NC(=O)NC(C)=C2C(C)=O)cc1Br (centres unmarked) | 4.32%
33 | C[N+](C)(C)CCCCCCCCCC[N+](C)(C)C.[Br-] | 7.97%
34 | O=C(CCNS(=O)(=O)c1ccc2c(c1)CCC(=O)N2)Nc1ccc2c(c1)OCCO2 | 5.34%
35 | COc1ccc([N+](=O)[O-])cc1NC(=O)C1C2C=CC(C2)C1C(=O)O (centres unmarked) | 6.24%
36 | O=C1C(C=NCC2CCCO2)=C(O)c2ccccc21 (centres unmarked) | 2.24%
37 | CC(=O)C(Cc1ccccc1)NC(=O)COC(=O)CCN1C(=O)C2CC=CCC2C1=O (centres unmarked) | 15.6%
38 | C=CCOc1ccc(C(=O)/C=C2/C(=O)Nc3ccccc32)cc1 | 7.9%
39 | Cn1c(CSCc2ccc(F)cc2)nnc1SCC(=O)Nc1nccs1 | 1.32%
40 | COC(=O)Nc1nncs1 | 10.2%
41 | C/C(=C\C(=O)c1cccnc1)Nc1ccc(C(=O)O)cc1 | 14.3%
42 | O=C(NC1CCCC1)c1ccc2nc[nH]c2c1 | 5.07%
43 | COc1ccc(S(=O)(=O)N2CCCCC2)cc1NC(=O)C1CC(=O)N(c2ccc3c(c2)OCCO3)C1 (centres unmarked) | 2.32%
44 | CCN(C(=O)COC(=O)c1cccs1)c1c(N)n(Cc2ccccc2)c(=O)[nH]c1=O | 18.7%
45 | COc1cc(C(=O)NCc2nnc(SCC(=O)Nc3nc4ccc(C)cc4s3)o2)cc(OC)c1OC | 9.61%
46 | CC1(C(=O)NC2CCCCCCC2)CC1(Cl)Cl (centres unmarked) | 2.6%

Row | SMILES | hERG current change (%, negative = inhibition) at 1uM
47 | Cc1ccc(C)c(NC(=O)c2cnccn2)c1 | 15%
48 | COc1ccc(N2C(=O)NC(=O)C2=O)cc1 | 6.15%
49 | CC1(C)CC(=O)C(C=NCCCN2CCCC2=O)=C(O)C1 | 6.9%
50 | CCCc1nc(SC2CCCC2)c2c(=O)n(C)c(=O)n(C)c2n1 | 11.2%
51 | CC(=O)N1N=C(c2ccccc2)CC1c1ccccc1[N+](=O)[O-] (centres unmarked) | 8.43%
52 | Cn1c(-c2cccc(Br)c2)n[nH]c1=O | 11.1%
53 | CCCN1CCC(NC(=O)Nc2ccc(Br)cc2)CC1 | 11.5%
54 | O=C(NCc1ccncc1)C(=O)NCC(c1ccccc1)c1ccccc1 | -7.42%
55 | CCCCCOc1ccc(C(=O)N(Cc2ccco2)C2CCS(=O)(=O)C2)cc1 (centres unmarked) | 13.4%
56 | O=C(Nc1ccc(Cl)cc1)Nc1ccccn1 | 10.7%
57 | Cc1cccc(NC(=O)COC(=O)CCCC2=NS(=O)(=O)c3ccccc3N2)c1 | 11.9%
58 | COc1ccc(C(CC(=O)c2ccccc2)CC(=O)c2ccccc2)cc1 | 7.56%
59 | COc1cccc(COC(=O)c2ccc(S(=O)(=O)N3CCC(C)CC3)cc2)c1OC | 15.2%
60 | Cc1ccc(Nc2nc(CSc3nnc(-c4ccccc4C)n3C)cs2)cc1 | 0.526%
61 | CCCCCn1c(=O)c(C(=O)OCC)c(Cl)c2ccccc21 | 17.8%
62 | COC(OC)c1ccc(C#N)c(=O)[nH]1 | 9.77%
63 | COCCCNC(=S)Nc1ccc(S(=O)(=O)Nc2cc(OC)nc(OC)n2)cc1 | -3.02%
64 | CCC(CC)NCc1ccc2c(c1)c1ccccc1n2CC.O=C(O)C(=O)O | 8.46%
65 | Brc1ccc(-c2noc3c2-c2nc(-c4ccccc4)sc2CC3)cc1 | 9.83%
66 | Cc1cc(NC(=O)CCCn2nc([N+](=O)[O-])c(Cl)c2C)no1 | 10.1%
67 | CCC(=O)n1nc(-c2ccc(Cl)cc2)nc1SC | 12.3%
68 | O=C(NCCc1ccccc1)C(=O)NCC1OCCN1S(=O)(=O)c1ccc(Cl)cc1 (centres unmarked) | 13.5%
69 | CC(=O)c1ccc(N2CCN(C(=S)Nc3cccc(F)c3)CC2)cc1 | 8.38%

Row | SMILES | hERG current change (%, negative = inhibition) at 1uM
70 | CC(C)[C@H](NC(=O)OC(C)(C)C)C(=O)NCC1CCC(C(=O)N[C@@H](Cc2ccccc2)C(=O)O)CC1 (some centres unmarked) | 8.89%
71 | COc1ccc2[nH]c(=O)c(CNC3CCCCC3)cc2c1 | 2.1%
72 | Fc1ccc(COc2ccc(Cl)cc2/C=N/Nc2nc(N3CCCC3)nc(N3CCCC3)n2)cc1 | -1.58%
73 | C=CCn1c(=O)/c(=C2/Sc3ccccc3N2CC)s/c1=C1/C(=O)NN=C1C | 16.4%
74 | CCCC/C(O)=C1\C(=O)CCCC1=NCCc1c(C)[nH]c2ccccc12 | 0.821%
75 | Cc1ccc(OC(=O)C(F)(F)F)c2c1NCCC2 | -7.8%
76 | FC(F)(F)c1cccc(-c2ccn3ncnc3n2)c1 | 5.81%
77 | O=C(N[C@@H](Cc1ccccc1)C(=O)O)c1cccnc1 | 10.8%
78 | COc1ccccc1C(=O)NC(=O)COC(=O)CN1C(=O)NC2(CCCCC2C)C1=O (centres unmarked) | -1.66%
79 | CC(C)CN(C(=O)CN1CCN(c2ccc(O)cc2)CC1)c1c(N)n(CC(C)C)c(=O)[nH]c1=O | 19.1%
80 | Cc1[nH]n(-c2cccc(Cl)c2)c(=O)c1C=NCc1ccco1 | 8.62%
81 | CCCOC(=O)c1cc(=O)[nH]c2ccccc12 | 5.09%
82 | Cc1ccc(NC(=O)n2ncc3c(C)cccc32)cc1F | 19.5%
83 | CCc1ccc(N2CCN(CCNC(=O)Nc3ccccc3)CC2)cc1 | 12.4%
84 | Cn1nnnc1Sc1c(Cl)cccc1[N+](=O)[O-] | 9.05%
85 | CS(=O)(=O)N1CCN(c2ccc([N+](=O)[O-])c(NCc3ccccc3)c2)CC1 | 7.2%
86 | Cc1ccc(S(=O)(=O)N2CCN(S(=O)(=O)N3CCOCC3)CC2)c(C)c1 | 7.27%
87 | O=C(Nc1c2c(nn1-c1ccc(F)cc1)CSC2)c1ccc(S(=O)(=O)N2CCOCC2)cc1 | -7.15%
88 | COc1ccc(OC)c(-n2c(SCC(C)=O)nnc2-c2cccc(S(=O)(=O)N(C)C)c2)c1 | -2.1%
89 | Cc1sc2c(c1C)CN(CCN1CCOCC1)CN2C(=O)c1ccccc1 | 17.5%

Reference: article PMC4336329 (PLoS ONE, 2015)
